Reference: the BET-seq Pho4 binding data (Le et al. 2018)
The list shows a part of the results. The energies were worked out here from pooled read counts, against the library average; single values are noisy.

The sequences below were run against T1, Pho4 (S. cerevisiae) (UniProt P07270) (assay: relative binding free energy (BET-seq); higher = weaker binding). Details: reference: library average.
T1 sequence: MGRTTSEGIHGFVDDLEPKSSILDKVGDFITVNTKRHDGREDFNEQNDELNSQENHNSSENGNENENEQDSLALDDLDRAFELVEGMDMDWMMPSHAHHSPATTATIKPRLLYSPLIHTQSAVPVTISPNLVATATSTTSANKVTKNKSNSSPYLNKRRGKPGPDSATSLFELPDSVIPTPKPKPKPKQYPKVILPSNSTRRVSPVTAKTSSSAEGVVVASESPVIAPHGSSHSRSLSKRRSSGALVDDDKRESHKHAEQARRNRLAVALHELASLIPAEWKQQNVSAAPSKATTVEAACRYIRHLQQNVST

Relative binding free energy, 0.16 kcal/mol:
AGGTGCACGTGAGGAC
AGGGACACGTGATGGA
AGGACCACGTGAGGGT
GCTATCACGTGGATGG
AAAATCACGTGTGTAG

Relative binding free energy, 0 kcal/mol:
ATCTACACGTGTTTTG
GGGTACACGTGGTGTC
AGCATCACGTGGGTAT
CGTGTCACGTGTCGTT
AGGGACACGTGGAGAG

Relative binding free energy, 0.13 kcal/mol:
GGTGTCACGTGTCTAA

Relative binding free energy, 0.12 kcal/mol:
ACGTACACGTGTGTGA
CGGGTCACGTGACGTG
AGGGACACGTGTTTTT
TGTAACACGTGTAGAT
TGGTACACGTGGGAAA
AGGTGCACGTGTGGAA

Relative binding free energy, 0.33 kcal/mol:
TTTTTCACGTGCTTCG
GGGTTCACGTGTTAGA
GAGGACACGTGAGTTT
GGTTACACGTGTCCTT
TGGTACACGTGAAATA
TCGATCACGTGTTTAA

Relative binding free energy, 0.23 kcal/mol:
GTGTTCACGTGGGTGC

Relative binding free energy, -0.13 kcal/mol:
GAAAGCACGTGTTGTG

Relative binding free energy, 0.29 kcal/mol:
GTTGTCACGTGTAAAG
CTTTACACGTGATTGT
GATATCACGTGAGGGA
GGCCTCACGTGTTTTG
CGTTTCACGTGTTCTT

Relative binding free energy, -0.01 kcal/mol:
ATGTGCACGTGATGAG
GTGTGCACGTGTCAAT
AGTACCACGTGTGTAT
TGTTACACGTGGGGAG
GATAGCACGTGGAGTT
GTTAGCACGTGCATGG

Relative binding free energy, 0.17 kcal/mol:
ATTTTCACGTGGTCTT
CTGATCACGTGATTGG
GGCGTCACGTGGTTGT
ATTTTCACGTGGGCAT

Relative binding free energy, -0.17 kcal/mol:
AAGGGCACGTGCGGAT
AGTGGCACGTGGTGCC

Relative binding free energy, 0.06 kcal/mol:
TATGTCACGTGTAGAG
AATTGCACGTGTCTGG
AGTGTCACGTGCTGGA
AATATCACGTGTTAGT
GTATGCACGTGGAATT
TTTTGCACGTGCGAGT
ATCTACACGTGGGGAG

Relative binding free energy, 0.07 kcal/mol:
TCGGGCACGTGGAACG
GTAAACACGTGTGCTT
GAGTGCACGTGAGTAT
GTGAGCACGTGCGATA
CGTATCACGTGTTTAT

Relative binding free energy, 0.11 kcal/mol:
CGGTCCACGTGTGGGC
GATTGCACGTGTAGGA
TGAAACACGTGGTTTT
GCTTGCACGTGTGTCT
TCGTACACGTGTGTAT

Relative binding free energy, -0.04 kcal/mol:
TCAGGCACGTGTGAGG
TGGTCCACGTGGGTCA
GGCGTCACGTGTAGGA
ATGGGCACGTGATTCT

Relative binding free energy, 0.1 kcal/mol:
GAGATCACGTGCTGTT
GTGATCACGTGGCGTT
GTAGACACGTGTATGT
AGGTACACGTGCAAGG
TGGAGCACGTGGAACG
TTCATCACGTGATAGT

Relative binding free energy, -0.18 kcal/mol:
CTCTGCACGTGGGGGA
TAGGACACGTGGGTAG
TTGTGCACGTGGGGAC

Relative binding free energy, -0.06 kcal/mol:
TGTGACACGTGTGTGG
TGCGACACGTGGGGAT
CGGTGCACGTGGGAAA
AGAGGCACGTGGATCG

Relative binding free energy, -0.16 kcal/mol:
AAGGACACGTGGAGTG
GAAGGCACGTGGTAGA

Relative binding free energy, -0.24 kcal/mol:
TTTACCACGTGGGTGA
TAGCGCACGTGGGGGG
CGTGGCACGTGGGGTG

Relative binding free energy, 0.02 kcal/mol:
TGAGCCACGTGTTTGG
TTAGACACGTGTAAGG

Relative binding free energy, -0.22 kcal/mol:
TAAAGCACGTGGGGCT
TATGCCACGTGGGGCT
TGACGCACGTGGGTAA

Relative binding free energy, -0.1 kcal/mol:
GGGGGCACGTGTACTT
AGGGGCACGTGTGCGC
TTCTACACGTGGGGAG
GTGAACACGTGCGTGG

Relative binding free energy, 0.21 kcal/mol:
TCATACACGTGTGATT
TGGTTCACGTGTCTAT

Relative binding free energy, -0.05 kcal/mol:
AGTTACACGTGGGGAC
TGCACCACGTGGTGGT
TAGGTCACGTGGGTGA
AGGGGCACGTGTATGT
TTTGGCACGTGTGGGA
TTGGACACGTGCGGGC
GTAGACACGTGGTTTG

Relative binding free energy, -0.2 kcal/mol:
TAAGCCACGTGGGGAG
TGGCCCACGTGGAGGT

Relative binding free energy, 0.4 kcal/mol:
ATCTTCACGTGATGTT
AGTTTCACGTGACAGG

Relative binding free energy, 0.27 kcal/mol:
TTTCACACGTGAATTT
GGGCTCACGTGTAGAG

Relative binding free energy, -0.09 kcal/mol:
ATAAGCACGTGTCGGT
CGGGGCACGTGGAGGG

Relative binding free energy, 0.14 kcal/mol:
GGTATCACGTGATCTG
CTGGTCACGTGCTGTA
TTTGACACGTGTGGGC

Relative binding free energy, 0.51 kcal/mol:
ATATTCACGTGAGGGC

Relative binding free energy, 0.38 kcal/mol:
ACTTTCACGTGAGTTG
GTAATCACGTGAGGGT
AGGTTCACGTGAGGAC

Relative binding free energy, 0.24 kcal/mol:
TATTGCACGTGATGGT
GGTTGCACGTGAGCTG
ATAATCACGTGAATTT

Relative binding free energy, -0.12 kcal/mol:
AAATGCACGTGGTTTA
ATAGGCACGTGTGTGT
TTGCGCACGTGCGTAT
TTGAGCACGTGGTGAG

Relative binding free energy, -0.03 kcal/mol:
GGTAGCACGTGACTGT
GTGGCCACGTGGTTAG
TGGACCACGTGGTTTA
TTATACACGTGTTGTC
TGATGCACGTGTGTAA
TGTGTCACGTGCTGAA
CGGTGCACGTGGAGGA

Relative binding free energy, 0.32 kcal/mol:
GGGAGCACGTGAGCGA

Relative binding free energy, -0.14 kcal/mol:
CCGGGCACGTGTTGGT
TTGCGCACGTGGGAGC
AGAAGCACGTGTGTGA

Relative binding free energy, 0.43 kcal/mol:
CAGTTCACGTGAGAGG
AGTCTCACGTGAATGT

Relative binding free energy, -0.23 kcal/mol:
CTTGGCACGTGGGTTT
GCGGGCACGTGGGGGC
GTGGCCACGTGGGCAT

Relative binding free energy, -0.11 kcal/mol:
ACGGGCACGTGGGAAT
TGGGGCACGTGATAAG
ACGAGCACGTGTTGTT
ATGAGCACGTGTTGGA
TCTAGCACGTGTGTTG

Relative binding free energy, 0.42 kcal/mol:
TATTTCACGTGATGGC

Relative binding free energy, 0.35 kcal/mol:
CGTTTCACGTGTTTAT
TAACTCACGTGTTTGC

Relative binding free energy, 0.03 kcal/mol:
TAGGTCACGTGCTTAG
GAATGCACGTGTTGTA
GGGTCCACGTGGCTTG
GGAGGCACGTGTCGTG
TAGATCACGTGTGGTA

Relative binding free energy, 0.01 kcal/mol:
ATTGACACGTGTTCGT
TCAGTCACGTGGGAGG
AATAGCACGTGTGATA
TTGAACACGTGGTTTC

Relative binding free energy, 0.08 kcal/mol:
AGTGTCACGTGGAATA
TGAAACACGTGTTTAT
ATGGACACGTGCGGCT
AAGGTCACGTGGTTAT

Relative binding free energy, 0.15 kcal/mol:
GCTGTCACGTGTTGGT
GGAGTCACGTGTAAGG
TTGGTCACGTGAGCGA
GGTCACACGTGATGTG

Relative binding free energy, 0.18 kcal/mol:
CTGAGCACGTGAGGTT
ATATTCACGTGCGCTT
GGTCGCACGTGAGTTT
TGCTTCACGTGTAATG
TGAGTCACGTGTCTCG
GTGAGCACGTGATTGA

Relative binding free energy, 0.26 kcal/mol:
GTTTTCACGTGTCTCT
TTTATCACGTGGAAGG

Relative binding free energy, 0.22 kcal/mol:
AGCTTCACGTGGTTTT
GTATGCACGTGCGGTC
GGGGACACGTGACGGG
GCGTTCACGTGTCTTG

Relative binding free energy, -0.07 kcal/mol:
TACGGCACGTGGAGAG
GGGTGCACGTGGGGTG
TCGTACACGTGGGGAG
GTTGCCACGTGGTAGA
ATGTGCACGTGTGTTT
TTTGACACGTGGGTCT

Relative binding free energy, 0.3 kcal/mol:
CAGTTCACGTGTTGGG
GGATTCACGTGAGTAG
GTCTGCACGTGATGGT

Relative binding free energy, 0.34 kcal/mol:
AGAATCACGTGAATGT

Relative binding free energy, 0.31 kcal/mol:
GTTCACACGTGATGTG
GGGATCACGTGTGACT
CCGTGCACGTGATGGA
TGCAGCACGTGAGATT
GGATTCACGTGTGGAA
AGATTCACGTGTAAAT
TTTTTCACGTGGATCG

Relative binding free energy, 0.39 kcal/mol:
GAGGTCACGTGATGGA

Relative binding free energy, -0.08 kcal/mol:
ATGGGCACGTGTACTG
GTTAGCACGTGGGAGA
TTTACCACGTGGTCGT
CTGGACACGTGGGTGA

Relative binding free energy, -0.02 kcal/mol:
TGGCGCACGTGGACAG
GGTGGCACGTGTAGTC

Relative binding free energy, -0.15 kcal/mol:
AAAGGCACGTGGTGTA
TTTACCACGTGGTTAT
ATATACACGTGGTCGG
CAGAACACGTGGTGGG

Relative binding free energy, 0.28 kcal/mol:
ATTATCACGTGTGCGC
CGGCTCACGTGATGGT
GTAGTCACGTGAAGAG

Relative binding free energy, -0.26 kcal/mol:
ATACGCACGTGGGGGA
CTGGGCACGTGCATGT

Relative binding free energy, 0.19 kcal/mol:
TTTTTCACGTGCACGG
TGCCTCACGTGTGGAT

Relative binding free energy, 0.2 kcal/mol:
ATAGTCACGTGATCGG
GCGGTCACGTGTTGGC

Relative binding free energy, 0.04 kcal/mol:
AAGATCACGTGTAGTG
GTGATCACGTGGCGTG
GTGGACACGTGGTCTT

Relative binding free energy, 0.44 kcal/mol:
AGGTACACGTGAGAGT

Relative binding free energy, 0.25 kcal/mol:
AGTTTCACGTGTGCGC
ATGTTCACGTGTGGAA
CAATGCACGTGAGGGA
TATGGCACGTGAAGGG

Relative binding free energy, -0.19 kcal/mol:
TGATCCACGTGGGGGA
ACATGCACGTGGGGCT
AAGGGCACGTGGGTGG

Relative binding free energy, 0.53 kcal/mol:
AGGCTCACGTGAAGCG

Relative binding free energy, 0.09 kcal/mol:
TAGTACACGTGGATTA
GGATGCACGTGTACGT
AGTTGCACGTGAGGGT
ATGGTCACGTGGTGGT
ACGGTCACGTGTGCGG
GTGGTCACGTGCAGGA
TTTCTCACGTGCGTGT
